These compounds were tested against Recombinant human cathepsin S (CatS) (Homo sapiens, UniProt P25774) (assay: biochemical).

SMILES	IC50 [nM]
CS(=O)(=O)N1CCc2c(c(-c3ccc(Br)cc3)nn2CC(O)CN2CCC(c3c[nH]c4ccc(C#N)cc34)CC2)C1 (stereo not drawn) [Example 108, 3-(1-{3-[3-(4-Bromo-phenyl)-5-methanesulfonyl-4,5,6,7-tetrahydro-pyrazolo[4,3-c]pyridin-1-yl]-2-hydroxy-propyl}-piperidin-4-yl)-1H-indole-5-carbonitrile]	40
COC(=O)c1oc2cc(F)ccc2c1C1CCN(CC(O)Cn2nc(-c3ccc(C(F)(F)F)cc3)c3c2CCN(C(C)=O)C3)CC1 (stereo not drawn) [Example 128, 3-(1-{3-[5-Acetyl-3-(4-trifluoromethyl-phenyl)-4,5,6,7-tetrahydro-pyrazolo[4,3c]pyridin-1-yl]-2-hydroxy-propyl}-piperidin-4-yl)-6-fluoro-benzofuran-2-carboxylic acid methyl ester]	230
CC(=O)N1CCc2c(c(-c3ccc(C(F)(F)F)cc3)nn2CC(O)CN2CCC(c3coc4cc(F)ccc34)CC2)C1 (stereo not drawn) [Example 131, 1-[1-{3-[4-(6-Fluoro-benzofuran-3-yl)-piperidin-1-yl]-2-hydroxy-propyl}-3-(4trifluoromethyl-phenyl)-1,4,6,7-tetrahydro-pyrazolo[4,3-c]pyridin-5-yl]-ethanone]	370
CS(=O)(=O)N1CCc2c(c(-c3ccc(C(F)(F)F)cc3)nn2CCCN2CC=C(c3c[nH]c4ncccc34)CC2)C1 [Example 115, 5-Methanesulfonyl-1-{3-[4-(1H-pyrrolo[2,3-b]pyridin-3-yl)-3,6-dihydro-2H-pyridin-1-yl]-propyl}-3-(4-trifluoromethyl-phenyl)-4,5,6,7-tetrahydro-1H-pyrazolo[4,3-c]pyridine]	590
CN(C)C(=O)c1sc2cc(F)ccc2c1C1CCN(CCCn2nc(-c3ccc(C(F)(F)F)cc3)c3c2CCN(S(C)(=O)=O)C3)CC1 [Example 133, 6-Fluoro-3-(1-{3-[5-methanesulfonyl-3-(4-trifluoromethyl-phenyl)-4,5,6,7-tetrahydro-pyrazolo[4,3-c]pyridin-1-yl]-propyl}-piperidin-4-yl)-benzo[b]thiophene-2-carboxylic acid dimethylamide]	380
CC(=O)N1CCc2c(c(-c3ccc(Br)cc3)nn2CC(O)CN2CCC(c3cn(CCN4CCOCC4)c4ncccc34)CC2)C1 (stereo not drawn) [Example 118, 1-[3-(4-Bromo-phenyl)-1-(2-hydroxy-3-{4-[1-(2-morpholin-4-yl-ethyl)-1H-pyrrolo[2,3-b]pyridin-3-yl]-piperidin-1-yl}-propyl)-1,4,6,7-tetrahydro-pyrazolo[4,3-c]pyridin-5-yl]-ethanone]	260
CS(=O)(=O)N1CCc2c(c(-c3ccc(C(F)(F)F)cc3)nn2CC(O)CN2CCC(c3cn(S(C)(=O)=O)c4cc(Cl)ccc34)CC2)C1 (stereo not drawn) [Example 106, 1-[4-(6-Chloro-1-methanesulfonyl-1H-indol-3-yl)-piperidin-1-yl]-3-[5-methanesulfonyl-3-(4-trifluoromethyl-phenyl)-4,5,6,7-tetrahydro-pyrazolo[4,3-c]pyridin-1-yl]-propan-2-ol]	200
CS(=O)(=O)N1CCc2c(c(-c3ccc(Br)cc3)nn2CC(O)CN2CCC(c3cn(CCN4CCOCC4)c4ncccc34)CC2)C1 (stereo not drawn) [Example 117, 1-[3-(4-Bromo-phenyl)-5-methanesulfonyl-4,5,6,7-tetrahydro-pyrazolo[4,3-c]pyridin-1-yl]-3-{4-[1-(2-morpholin-4-yl-ethyl)-1H-pyrrolo[2,3-b]pyridin-3-yl]-piperidin-1-yl}-propan-2-ol]	100
COC(=O)n1cc(C2CCN(CC(O)Cn3nc(-c4ccc(C(F)(F)F)cc4)c4c3CCN(S(C)(=O)=O)C4)CC2)c2ccc(Cl)nc21 (stereo not drawn) [Example 119, 6-Chloro-3-(1-{2-hydroxy-3-[5-methanesulfonyl-3-(4-trifluoromethyl-phenyl)-4,5,6,7-tetrahydro-pyrazolo[4,3-c]pyridin-1-yl]-propyl}-piperidin-4-yl)-pyrrolo[2,3-b]pyridine-1-carboxylic acid methyl ester]	690
CS(=O)(=O)N1CCc2c(c(-c3ccc(Br)cc3)nn2CC(O)CN2CCC(c3c[nH]c4ncccc34)CC2)C1 (stereo not drawn) [Example 112, 1-[3-(4-Bromo-phenyl)-5-methanesulfonyl-4,5,6,7-tetrahydro-pyrazolo[4,3-c]pyridin-1-yl]-3-[4-(1H-pyrrolo[2,3-b]pyridin-3-yl)-piperidin-1-yl]-propan-2-ol]	130
CC(=O)N1CCc2c(c(-c3ccc(Br)cc3)nn2CC(O)CN2CCC(c3c[nH]c4ccncc34)CC2)C1 (stereo not drawn) [Example 125, 1-(3-(4-Bromo-phenyl)-1-{2-hydroxy-3-[4-(1H-pyrrolo[3,2-c]pyridin-3-yl)-piperidin-1-yl]-propyl}-1,4,6,7-tetrahydro-pyrazolo[4,3-c]pyridin-5-yl)-ethanone]	210
CC(=O)N1CCc2c(c(-c3ccc(C(F)(F)F)cc3)nn2CC(O)CN2CCC(c3c[nH]c4ccncc34)CC2)C1 (stereo not drawn) [Example 123, 1-[1-{2-Hydroxy-3-[4-(1H-pyrrolo[3,2-c]pyridin-3-yl)-piperidin-1-yl]-propyl}-3-(4-trifluoromethyl-phenyl)-1,4,6,7-tetrahydro-pyrazolo[4,3-c]pyridin-5-yl]-ethanone]	150
CS(=O)(=O)N1CCc2c(c(-c3ccc(C(F)(F)F)cc3)nn2CC(O)CN2CCC(c3c[nH]c4nc(Cl)ccc34)CC2)C1 (stereo not drawn) [Example 120, 1-[4-(6-Chloro-1H-pyrrolo[2,3-b]pyridin-3-yl)-piperidin-1-yl]-3-[5-methanesulfonyl-3-(4-trifluoromethyl-phenyl)-4,5,6,7-tetrahydro-pyrazolo[4,3-c]pyridin-1-yl]-propan-2-ol]	250
CS(=O)(=O)N1CCc2c(c(-c3ccc(C(F)(F)F)cc3)nn2CC(O)CN2CCC(c3csc4cc(F)ccc34)CC2)C1 (stereo not drawn) [Example 130, 1-[4-(6-Fluoro-benzo[b]thiophen-3-yl)-piperidin-1-yl]-3-[5-methanesulfonyl-3-(4trifluoromethyl-phenyl)-4,5,6,7-tetrahydro-pyrazolo[4,3-c]pyridin-1-yl]-propan-2-ol]	190
CC(=O)N1CCc2c(c(-c3ccc(Br)cc3)nn2CC(O)CN2CCC(c3c[nH]c4ncccc34)CC2)C1 (stereo not drawn) [Example 113, 1-(3-(4-Bromo-phenyl)-1-{2-hydroxy-3-[4-(1H-pyrrolo[2,3-b]pyridin-3-yl)-piperidin-1-yl]-propyl}-1,4,6,7-tetrahydro-pyrazolo[4,3-c]pyridin-5-yl)-ethanone]	200
CC(=O)N1CCc2c(c(-c3ccc(Cl)c(C)c3)nn2CC(O)CN2CCC(c3c[nH]c4ccccc34)CC2)C1 (stereo not drawn) [Example 101, 1-(3-(4-Chloro-3-methyl-phenyl)-1-{2-hydroxy-3-[4-(1H-indol-3-yl)-piperidin-1-yl]-propyl}-1,4,6,7-tetrahydro-pyrazolo[4,3-c]pyridin-5-yl)-ethanone]	250
CC(=O)N1CCc2c(c(-c3ccc(C(F)(F)F)cc3)nn2CC(O)CN2CCC(c3c(C#N)sc4cc(F)ccc34)CC2)C1 (stereo not drawn) [Example 134, 3-(1-{3-[5-Acetyl-3-(4-trifluoromethyl-phenyl)-4,5,6,7-tetrahydro-pyrazolo[4,3-c]pyridin-1-yl]-2-hydroxy-propyl}-piperidin-4-yl)-6-fluoro-benzo[b]thiophene-2-carbonitrile]	380
CS(=O)(=O)N1CCc2c(c(-c3ccc(C(F)(F)F)cc3)nn2CCCN2CCC(c3c[nH]c4ccc(Cl)cc34)CC2)C1 [Example 103, 1-{3-[4-(5-Chloro-1H-indol-3-yl)-piperidin-1-yl]-propyl}-5-methanesulfonyl-3-(4-trifluoromethyl-phenyl)-4,5,6,7-tetrahydro-1H-pyrazolo[4,3-c]pyridine]	160
CS(=O)(=O)N1CCc2c(c(-c3ccc(C(F)(F)F)cc3)nn2CC(O)CN2CCC(c3c(C#N)sc4cc(F)ccc34)CC2)C1 (stereo not drawn) [Example 135, 6-Fluoro-3-(1-{2-hydroxy-3-[5-methanesulfonyl-3-(4-trifluoromethyl-phenyl)-4,5,6,7-tetrahydro-pyrazolo[4,3-c]pyridin-1-yl]-propyl}-piperidin-4-yl)-benzo[b]thiophene-2-carbonitrile]	210
CS(=O)(=O)N1CCc2c(c(-c3ccc(C(F)(F)F)cc3)nn2CCCN2CCC(c3c(C(N)=O)sc4cc(F)ccc34)CC2)C1 [Example 35, 6-Fluoro-3-(1-{3-[5-methanesulfonyl-3-(4-trifluoromethyl-phenyl)-4,5,6,7-tetrahydro-pyrazolo[4,3-c]pyridin-1-yl]-propyl}-piperidin-4-yl)benzo[b]thiophene-2-carboxylic acid amide]	30
CS(=O)(=O)N1CCc2c(c(-c3ccc(Br)cc3)nn2CC(O)CN2CCC(c3cn(CCN4CCOCC4)c4cc(Cl)ccc34)CC2)C1 (stereo not drawn) [Example 109, 1-[3-(4-Bromo-phenyl)-5-methanesulfonyl-4,5,6,7-tetrahydro-pyrazolo[4,3-c]pyridin-1-yl]-3-{4-[6-chloro-1-(2-morpholin-4-yl-ethyl)-1H-indol-3-yl]-piperidin-1-yl}-propan-2-ol]	80

From patent US7265102B2 (priority 2000, dated 2007)
